Reference: the supplement of paper PMC3334620
The full ranking holds about 33,000 sequences; the median of “E-score (-0.5 to 0.5)” is about -0.043, and the highest 2% start at about 0.37. Some of the results follow.

Biological target: T1, Upc2 (UniProt Q12151)
T1 sequence: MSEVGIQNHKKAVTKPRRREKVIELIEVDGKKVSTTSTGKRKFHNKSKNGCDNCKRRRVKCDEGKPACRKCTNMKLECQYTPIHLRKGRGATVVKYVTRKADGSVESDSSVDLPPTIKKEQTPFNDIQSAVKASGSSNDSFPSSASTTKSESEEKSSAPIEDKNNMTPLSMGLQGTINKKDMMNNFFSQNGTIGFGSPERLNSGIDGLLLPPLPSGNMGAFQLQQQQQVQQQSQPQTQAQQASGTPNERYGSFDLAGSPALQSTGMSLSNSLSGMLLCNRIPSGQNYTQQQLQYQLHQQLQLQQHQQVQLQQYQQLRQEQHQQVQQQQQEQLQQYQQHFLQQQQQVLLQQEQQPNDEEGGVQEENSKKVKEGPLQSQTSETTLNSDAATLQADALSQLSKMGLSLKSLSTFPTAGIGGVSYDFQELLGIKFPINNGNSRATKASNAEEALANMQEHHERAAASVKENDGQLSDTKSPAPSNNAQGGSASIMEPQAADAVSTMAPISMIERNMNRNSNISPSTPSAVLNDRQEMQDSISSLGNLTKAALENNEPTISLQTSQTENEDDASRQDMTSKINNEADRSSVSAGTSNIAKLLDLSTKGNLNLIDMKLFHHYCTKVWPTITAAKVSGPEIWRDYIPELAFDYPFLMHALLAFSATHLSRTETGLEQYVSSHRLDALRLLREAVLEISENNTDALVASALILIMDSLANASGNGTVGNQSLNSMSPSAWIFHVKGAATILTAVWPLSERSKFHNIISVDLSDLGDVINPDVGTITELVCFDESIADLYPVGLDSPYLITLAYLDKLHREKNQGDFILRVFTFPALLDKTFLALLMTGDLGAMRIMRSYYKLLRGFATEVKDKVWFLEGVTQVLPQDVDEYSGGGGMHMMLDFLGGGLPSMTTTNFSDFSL
Experiment: PBM E-score (8-mer binding enrichment) (E-score (-0.5 to 0.5)); higher = stronger / more preferred TF binding; most listed sequences are background and not binding sites
Details: protein concentration: 200 nM; construct: GST-full length
Procedure, shortened: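 For each ungapped eight-base word taken together with its reverse complement, the Universal PBM Analysis Suite assigned an E-score. Binding data came from GST-tagged yeast transcription factors, applied at about 100-200 nM, on universal all-10-mer Agilent arrays made double-stranded by primer extension. Fluorescent anti-GST marked bound protein, and scans were normalised with masliner.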

Sequence	PBM E-score
ACTAATTC	0.0282
CAAGGTGC	-0.263
AACCTGGC	-0.0924
CGAGATGA	0.233
CCCCTGGC	-0.237
CAGTGAAG	-0.245
ATCTTGGG	-0.31
AGTGATTC	-0.0528
ACGGTAAT	0.139
ACATCAGA	-0.0274
AAAGGCCC	-0.141
AGCATTCA	-0.164
GATGCATC	0.0421
ATCCATAA	0.196
CCTGAGCG	0.162
TACGTCAA	0.0633
ACCATTAA	0.111
ATTCCTTA	-0.111
AACCCAGA	-0.0878
AACTAATG	-0.0822
CTGTGCAA	-0.14
CCGTGACC	-0.357
AACGGTGT	0.283
GCAGTGAA	0.111
CAGTACTC	-0.113

Sequence	PBM E-score
CACACATA	-0.16
CACATGAA	-0.11
ATAAGAAC	0.136
TCTTCGAA	0.0637
CTAAGAAC	-0.0479
AACTTATA	0.165
ATCAGCGG	-0.0474
CAGCACGG	-0.256
ACGAGTAG	0.368
AGGCTCTC	-0.123
CCCTAGTC	-0.223
CCACCGTA	0.399
GAAGGCTC	-0.283
CTGACGCA	-0.268
GATTAGCC	0.0747
CAATGCCG	-0.121
TATTCTCA	-0.199
AAATACGG	0.266
AATTTGCC	-0.18
CTTCGACC	-0.102
ATACCAAT	-0.0565
AGCAGTGC	-0.138
TTGCGCAA	-0.00115
TAGGCGGA	-0.00475
CGGTGGGC	-0.134

Sequence	PBM E-score
CAACCTTG	-0.129
AATTTACT	-0.0105
TAGGGTCA	-0.109
ACATCGAC	-0.131
AACTTCGA	-0.0227
CTCAGATA	0.0252
AGAACGTG	-0.00321
AATAACAT	0.0313
CTTATTGC	-0.223
AAGTATGT	-0.202
CAGGCGCA	-0.154
AGGCGCAA	0.0208
TTCCGCAA	0.114
ATCCGAAG	0.237
ATATCCCG	0.0433
CCCGGACG	-0.134
ATCACCAA	-0.0318
AGACCGCC	-0.168
CGCATTTA	0.0301
CCCAGAGG	-0.223
ATCCCACC	-0.0175
CTTGTAGA	-0.27
CGAACTAG	0.111
CAGTTTCA	-0.223
CGTCTATC	0.0488

Sequence	PBM E-score
GTACCCAC	0.0606
CATAGTAC	0.0276
GAACCCTC	-0.0534
GGTTCCGA	-0.0978
CTTCCGCC	-0.234
ATCATTGA	-0.00619
ATGAGAGC	-0.213
GTATGACA	0.153
GAACTTAA	0.127
AGGCACGC	-0.0907
TTAACGAA	0.448
GTTTGCTA	0.0775
CCACTATC	-0.161
GTAACATA	0.0875
CCGGGGTC	-0.0755
ATCAAGGC	-0.0329
ATGGCTGG	-0.144
ACATCCGT	0.246
CTCAGCAC	-0.0932
CACCAGCA	-0.0717
ACGCAACA	0.108
GATCACCA	-0.0596
CGGGTTGA	0.0655
CCTGGAAA	-0.0648
AAACGGCC	0.359

Sequence	PBM E-score
GTTCCCTA	0.139
ACTACGAA	0.185
GCTACCTA	-0.0899
GTGATGCA	-0.118
GTGGAGAA	-0.163
TACGCGTA	0.321
CCTTCGCA	0.0293
CGTCCGTC	-0.226
AGTCCGCA	-0.156
TCTTGTCA	-0.108
CGATAATA	0.0334
TAAATTTA	0.262
AACGTCCG	0.0706
GATCACTA	0.113
ATGGGTAC	0.171
TAAAGCGA	0.191
AACCATCT	-0.12
AGTTTAGG	-0.0592
CACGATGC	0.0841
GAGCGGTA	0.143
CTTCGTCC	-0.316
ACAAAAGA	0.188
CGGAAAAC	0.163
CATAGATC	-0.269
CGTTCGAA	0.221

Sequence	PBM E-score
AATGCAGA	-0.0923
CCCCTCGC	0.0535
GGACTACA	-0.219
GCTGATAA	0.0387
AACGTATA	0.443
CGCATGAG	-0.107
ATTACAAT	0.00976
ATTCGTCG	0.126
TGGTGTAA	-0.0753
CACTCCCA	-0.193
AAACTACG	0.212
AACTAAAA	0.0173
AACTTTCT	-0.202
ATTTCTCC	-0.224
ATAGTAGC	0.164
AATGCGCC	0.0488
CCATTTTA	0.0796
GGAAGGCA	-0.267
CGTGGCCA	-0.113
GTGTGACA	-0.186
GGACGGCA	-0.194
CGGATCGC	0.115
AGTATGGC	-0.129
CTGACAAC	-0.303
ATCAGGAC	-0.115

Sequence	PBM E-score
AGGTTTCG	-0.0395
AAGCTGAA	-0.133
ATCGAGTG	0.0718
ACTTGCCG	-0.121
GGAGCACC	-0.18
GTTGATAA	0.136
GGCCTCCA	-0.269
ACGGCTTC	0.107
GAGAATGA	0.0733
CGACCACG	0.176
CTGCAGCC	-0.00681
ATCGCCGC	-0.0746
GTCCGCGA	0.0436
AAGGTGCC	-0.228
TAATAGCA	-0.144
GCCCCCGA	-0.262
ATTTCTTA	0.132
ACTGTTGG	-0.326
AGACGAAT	0.0524
CGATGAAG	-0.0196
AAGCATCG	0.122
ATCTTCCG	0.168
